Source: PubChem BioAssay AID2546 (National Center for Advancing Translational Sciences (NCATS), 2010)
Out of some 310,000 compounds screened, about 11,000 (3.5%) were called active. The shares of active, inactive and inconclusive entries below differ from those in the screen. Calls come from the whole dose curve; as a rule, active = well fitted inhibition curve with a large enough effect; inconclusive = small, poorly fitted or top-dose-only effect, or effect the other way; inactive = flat fitted curve, though single readings scatter. No potency is given beside an inconclusive call; the fits are too rough.

Experiment: VP16 counterscreen qHTS for inhibitors of ROR gamma transcriptional activity;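 note: Gal4-VP16 expression switched on by copper sulfate through the metallothionein promoter; nearly all actives have a fitted effect of over 50% in size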
Conditions: Drosophila S2 Gal4-VP16 UAS-luciferase, luminescence, 20 h; activity, negative = inhibition: at 53.6 µM (top of the series)
% is set by controls: 0 for no effect and ±100 for the full control effect; potency is the fitted concentration of half-maximal effect; tags give direction and shape of the fitted curve.

| Compound | Potency | activity, negative = inhibition |
| --- | --- | --- |
| Cc1cc([N+](=O)[O-])cc2c1NC(=O)C2(O)N1CCOCC1 (stereo unspecified) | inconclusive [inhibitor, single point] |  |
| O=C(Nc1ccc(OCC(=O)N2CCC(Cc3ccccc3)CC2)cc1)c1ccco1 |  | inactive: -10.1% |
| O=C(NN=C1CCCC1)c1ccc(O)cc1 | inconclusive [inhibitor, single point] |  |
| CCOc1ccccc1/C=N/n1c(C2CCCCC2)n[nH]c1=S | inconclusive [inhibitor, partial curve, poor fit] |  |
| CCC(C)NCCOCCOc1ccc(Cl)cc1Br (stereo unspecified) |  | inactive: -16.3% |
| Fc1ccc(-n2c(Cc3ccccc3)nnc2SCc2nc(-c3cccs3)no2)cc1 | inconclusive [inhibitor, single point] |  |
| C/C(=N\NC(=O)CC1(C)OCCO1)c1cccs1 |  | inactive: -6.83% |
| O=C(c1ccccc1)N(C1=NCCCCS1)c1ccccc1 |  | inactive: -6.73% |
| Cc1ccc(C(=O)Nc2ncc(Cc3ccc(F)cc3)s2)o1 | inconclusive [inhibitor, single point] |  |
| Cc1csc(NC(=O)Cc2nn(C)c(=O)c3ccccc23)n1 | inconclusive [inhibitor, single point] |  |
| CC(C)(C)c1ccc(/C=C/C(=O)Nc2ccncc2)cc1 | inconclusive [inhibitor, single point] |  |
| CC(C)(C)NC(=O)C(=O)NNC(=O)c1ccc(C(C)(C)C)cc1 | inconclusive [inhibitor, single point] |  |
| CCOC(=O)c1c(C)n(-c2ccccc2)c2ccc(O)cc12 | inconclusive [inhibitor, single point] |  |
| O=C(/C=C/c1ccc2c(c1)OCO2)N1CCN(c2n[nH]c(=O)[nH]c2=O)CC1 |  | inactive: 5.08% |
| FC(F)(F)c1ccccc1-n1c(-c2cnccn2)n[nH]c1=S |  | inactive: -1.39% |
| CCOC(=O)N(Cc1ccccc1)C(C(=O)O)C(C(=O)O)N(Cc1ccccc1)C(=O)OCC (stereo unspecified) | inconclusive [inhibitor, full curve] |  |
| CN(C)c1cc(-c2ccc(Cl)cc2Cl)oc(=O)c1Cl |  | inactive: -3.21% |
| COc1cccc(NC(=S)NCc2ccco2)c1 | inconclusive [inhibitor, partial curve, poor fit] |  |
| C/C(=N\NC(=O)c1ccncc1)c1cccc(NC(=O)c2ccc(C(C)(C)C)cc2)c1 | active: 3.98 µM |  |
| O=C1CC(N2CCC(c3nc4ccccc4o3)CC2)C(=O)N1c1ccc(Cl)c(C(F)(F)F)c1 (stereo unspecified) | inconclusive [inhibitor, single point] |  |
| COc1ccc2oc(=O)c(C(=O)NCC3CCCO3)cc2c1 (stereo unspecified) |  | inactive: -7.47% |
| CCCCc1c(C)c2ccc(OCC(C)=O)cc2oc1=O | inconclusive [inhibitor, single point] |  |
| O=[N+]([O-])c1ccc2[nH]c(O)c(N=NC(=S)NCC3CCCO3)c2c1 (stereo unspecified) | inconclusive [inhibitor, single point] |  |

| Compound | Potency | activity, negative = inhibition |
| --- | --- | --- |
| O=C(NC(=S)Nc1ccc(N2CCOCC2)cc1)c1cccc([N+](=O)[O-])c1 | active: 2.82 µM |  |
| COc1ccc(-c2ccc3ccccc3n2)cc1 | inconclusive [inhibitor, single point] |  |
| CO/N=C/c1ccc(Oc2ccc(C)cc2)c([N+](=O)[O-])c1 | inconclusive [inhibitor, single point] |  |
| CCOC(=O)c1sc(Nc2cccc(C)c2C)nc1C |  | inactive: 5.39% |
| O=C1CC(Sc2nnnn2-c2ccccc2)C(=O)N1c1cccc(Cl)c1 (stereo unspecified) | active: 3.16 µM |  |
| CC(=O)c1cn(CC(=O)Nc2ccccc2Cl)c2ccccc12 | inconclusive [inhibitor, single point] |  |
| CC(C)COc1ccc(C(=O)Nc2ccc(NC(=O)c3ccco3)c(Cl)c2)cc1 | inconclusive [inhibitor, single point] |  |
| Cc1ccc(C2C=C(c3ccccc3)Nc3nc(N4C(=O)CCC4=O)nn32)cc1 (stereo unspecified) |  | inactive: 4.91% |
| Cc1cccc(NC(=O)c2ccc([N+](=O)[O-])o2)c1 | inconclusive [inhibitor, single point] |  |
| Cc1ccc(C(=O)Nc2ccc3c(c2)CCC3)cc1 | inconclusive [activator, partial curve, poor fit] |  |
| NC(=O)c1cc(S(=O)(=O)Nc2ccc(OC(F)(F)F)cc2)cs1 | inconclusive [inhibitor, partial curve] |  |
| CC1Oc2ccccc2C=C1/C=N/NC(=O)c1ccccc1O (stereo unspecified) | inconclusive [inhibitor, single point] |  |
| COc1ccc(NC(=O)c2cc3c(Cl)nc4ccccc4c3s2)cc1OC | inconclusive [inhibitor, single point] |  |
| CCC(=O)N(Cc1ccc2c(c1)OCO2)Cc1cc2cc(OC)ccc2[nH]c1=O | inconclusive [inhibitor, partial curve] |  |
| CCOC(=O)N1CCN(C(=O)c2ccc(CS(=O)(=O)c3c(Cl)cccc3Cl)o2)CC1 | inconclusive [activator, partial curve] |  |
| COc1ccc(C(=S)N2CCOCC2)cc1OC(=O)c1ccc([N+](=O)[O-])cc1[N+](=O)[O-] | inconclusive [inhibitor, partial curve] |  |
| N[C@@H](CO)C(=O)NNCc1ccc(O)c(O)c1O |  | inactive: -9.38% [at 17 µM] |
| O=C(CSc1ncnc2c1oc1ccccc12)Nc1nc2ccccc2s1 | inconclusive [inhibitor, single point] |  |
| CCNC(=O)COC(=O)CCC(=O)c1cccs1 | inconclusive [activator, single point] |  |
| C=C(C)CNC(=S)Nc1cccc(N)n1 | inconclusive [inhibitor, single point] |  |
| CCS(=O)(=O)N1Cc2ccccc2CC1C(=O)Nc1nnc(SCc2c(Cl)cccc2Cl)s1 (stereo unspecified) | active: 6.31 µM |  |
| CC(C)C(C)NC(=O)CSc1nc2scc(-c3ccco3)c2c(=O)n1-c1ccccc1 (stereo unspecified) | active: 14.1 µM |  |
| OC[C@H]1O[C@@H](n2cnc3cncnc32)[C@H](O)[C@@H]1O | active: 3.16 µM |  |
